Measurements published in the supplement of paper PMC8728848.
The other results are listed elsewhere or left out.

How the values were obtained:
Test in all cases: glycan array binding signal (z-score within array); higher = stronger binding
Settings in all cases: glycan notation: IUPAC condensed, linker removed
[1] = molecular target: Man(a1-3)[Man(a1-6)]Man(b1-4)GlcNAc(b1-4)GlcNAc
Method in brief: (§1)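 Glycan array data were curated from 3228 arrays in the Consortium for Functional Glycomics database and kept only where the protein sequence was available. Glycan names were converted to IUPAC-condensed notation, and columns mapping to the same glycan were averaged. The binding signal is a within-array Z-score, averaged across arrays of the same protein sequence at different concentrations or buffers and across linkers. Negative Z-scores can be read as non-binding.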

Man(b1-4)GlcNAc = molecular target: Man(b1-4)GlcNAc
Method in brief: as §1

Neu5Ac(a2-3)Gal = molecular target: Neu5Ac(a2-3)Gal
Method in brief: as §1

[2] = molecular target: Neu5Ac(a2-3)Gal(b1-3)GalNAc
Method in brief: as §1

[3] = molecular target: Neu5Ac(a2-3)Gal(b1-3)GalNAc(b1-3)Gal(a1-4)Gal(b1-4)Glc
Method in brief: as §1

[4] = molecular target: Neu5Ac(a2-3)Gal(b1-3)GalNAc(b1-4)[Neu5Ac(a2-3)]Gal(b1-4)Glc
Method in brief: as §1

[5] = molecular target: Neu5Ac(a2-3)Gal(b1-3)GalNAc6S
Method in brief: as §1

[6] = molecular target: Neu5Ac(a2-3)Gal(b1-3)GlcNAc
Method in brief: as §1

[7] = molecular target: Neu5Ac(a2-3)Gal(b1-3)GlcNAc(b1-3)Gal(b1-4)GlcNAc
Method in brief: as §1

[8] = molecular target: Neu5Ac(a2-3)Gal(b1-3)GlcNAc6S
Method in brief: as §1

[9] = molecular target: Neu5Ac(a2-3)Gal(b1-3)[Fuc(a1-4)]GlcNAc
Method in brief: as §1

[10] = molecular target: Neu5Ac(a2-3)Gal(b1-3)[Fuc(a1-4)]GlcNAc(b1-3)Gal(b1-4)[Fuc(a1-3)]GlcNAc
Method in brief: as §1

[11] = molecular target: Neu5Ac(a2-3)Gal(b1-3)[Neu5Ac(a2-3)Gal(b1-4)]GlcNAc
Method in brief: as §1

[12] = molecular target: Neu5Ac(a2-3)Gal(b1-3)[Neu5Ac(a2-6)]GalNAc
Method in brief: as §1

Neu5Ac(a2-3)Gal(b1-4)Glc = molecular target: Neu5Ac(a2-3)Gal(b1-4)Glc
Method in brief: as §1

[13] = molecular target: Neu5Ac(a2-3)Gal(b1-4)GlcNAc
Method in brief: as §1

[14] = molecular target: Neu5Ac(a2-3)Gal(b1-4)GlcNAc(b1-3)Gal(b1-4)GlcNAc
Method in brief: as §1

[15] = molecular target: Neu5Ac(a2-3)Gal(b1-4)GlcNAc(b1-3)Gal(b1-4)GlcNAc(b1-3)Gal(b1-4)GlcNAc
Method in brief: as §1

[16] = molecular target: Neu5Ac(a2-3)Gal(b1-4)GlcNAc(b1-3)Gal(b1-4)[Fuc(a1-3)]GlcNAc
Method in brief: as §1

[17] = molecular target: Neu5Ac(a2-3)Gal(b1-4)GlcNAc6S
Method in brief: as §1

[18] = molecular target: Neu5Ac(a2-3)Gal(b1-4)[Fuc(a1-3)]GlcNAc
Method in brief: as §1

[19] = molecular target: Neu5Ac(a2-3)Gal(b1-4)[Fuc(a1-3)]GlcNAc(b1-3)Gal
Method in brief: as §1

[20] = molecular target: Neu5Ac(a2-3)Gal(b1-4)[Fuc(a1-3)]GlcNAc(b1-3)Gal(b1-4)GlcNAc
Method in brief: as §1

[21] = molecular target: Neu5Ac(a2-3)Gal(b1-4)[Fuc(a1-3)]GlcNAc(b1-3)Gal(b1-4)[Fuc(a1-3)]GlcNAc(b1-3)Gal(b1-4)[Fuc(a1-3)]GlcNAc
Method in brief: as §1

[22] = molecular target: Neu5Ac(a2-3)Gal(b1-4)[Fuc(a1-3)]GlcNAc6S
Method in brief: as §1

[23] = molecular target: Neu5Ac(a2-3)Gal6S(b1-4)GlcNAc
Method in brief: as §1

[24] = molecular target: Neu5Ac(a2-3)Gal6S(b1-4)[Fuc(a1-3)]GlcNAc
Method in brief: as §1

Neu5Ac(a2-3)GalNAc = molecular target: Neu5Ac(a2-3)GalNAc
Method in brief: as §1

[25] = molecular target: Neu5Ac(a2-3)GalNAc(b1-4)GlcNAc
Method in brief: as §1

[26] = molecular target: Neu5Ac(a2-3)[GalNAc(b1-4)]Gal(b1-4)Glc
Method in brief: as §1

[27] = molecular target: Neu5Ac(a2-3)[GalNAc(b1-4)]Gal(b1-4)GlcNAc
Method in brief: as §1

[28] = molecular target: Neu5Ac(a2-3)[Neu5Ac(a2-6)]GalNAc
Method in brief: as §1

[29] = molecular target: Neu5Ac(a2-6)Gal(b1-4)GlcNAc
Method in brief: as §1

[30] = molecular target: Neu5Ac(a2-6)Gal(b1-4)GlcNAc(b1-2)Man(a1-3)[Neu5Ac(a2-6)Gal(b1-4)GlcNAc(b1-2)Man(a1-6)]Man(b1-4)GlcNAc(b1-4)GlcNAc
Method in brief: as §1

[31] = molecular target: Neu5Ac(a2-6)Gal(b1-4)GlcNAc(b1-3)Gal(b1-4)GlcNAc
Method in brief: as §1

[32] = molecular target: Neu5Ac(a2-6)Gal(b1-4)GlcNAc(b1-3)Gal(b1-4)[Fuc(a1-3)]GlcNAc(b1-3)Gal(b1-4)[Fuc(a1-3)]GlcNAc
Method in brief: as §1

[33] = molecular target: Neu5Ac(a2-6)Gal(b1-4)GlcNAc6S
Method in brief: as §1

Neu5Ac(a2-6)GalNAc = molecular target: Neu5Ac(a2-6)GalNAc
Method in brief: as §1

[34] = molecular target: Neu5Ac(a2-6)GalNAc(b1-4)GlcNAc
Method in brief: as §1

Neu5Ac(a2-8)Neu5Ac = molecular target: Neu5Ac(a2-8)Neu5Ac
Method in brief: as §1

[35] = molecular target: Neu5Ac(a2-8)Neu5Ac(a2-3)Gal(b1-4)Glc
Method in brief: as §1

[36] = molecular target: Neu5Ac(a2-8)Neu5Ac(a2-3)[GalNAc(b1-4)]Gal(b1-4)Glc
Method in brief: as §1

[37] = molecular target: Neu5Ac(a2-8)Neu5Ac(a2-8)Neu5Ac
Method in brief: as §1

[38] = molecular target: Neu5Ac(a2-8)Neu5Ac(a2-8)Neu5Ac(a2-3)Gal(b1-4)Glc
Method in brief: as §1

[39] = molecular target: Neu5Ac(a2-8)Neu5Ac(a2-8)Neu5Ac(a2-3)[GalNAc(b1-4)]Gal(b1-4)Glc
Method in brief: as §1

B1: CVNH0 (Neurospora crassa), Q7S6U4 (protein)
chain: GSHIGPYMSFHVTAEDARIEVRDNRTILFARLRREDGEWNDASYELDQIIGNNDGHFQWGGQNFTETAEDIRFHPKEGAAEQPILRARLRDCNGEFHDRDVNLTEIVENVNGEFQAKF
glycan array binding signal (z-score) [1]: -0.429
glycan array binding signal (z-score) (Man(b1-4)GlcNAc): -0.435
glycan array binding signal (z-score) (Neu5Ac(a2-3)Gal): -0.431
glycan array binding signal (z-score) [2]: -0.438
glycan array binding signal (z-score) [3]: -0.282
glycan array binding signal (z-score) [4]: -0.439
glycan array binding signal (z-score) [5]: -0.449
glycan array binding signal (z-score) [6]: -0.423
glycan array binding signal (z-score) [7]: -0.43
glycan array binding signal (z-score) [8]: 0.204
glycan array binding signal (z-score) [9]: -0.442
glycan array binding signal (z-score) [10]: 2.62
glycan array binding signal (z-score) [11]: -0.411
glycan array binding signal (z-score) [12]: -0.437
glycan array binding signal (z-score) (Neu5Ac(a2-3)Gal(b1-4)Glc): 0.741
glycan array binding signal (z-score) [13]: -0.323
glycan array binding signal (z-score) [14]: -0.351
glycan array binding signal (z-score) [15]: -0.353
glycan array binding signal (z-score) [16]: -0.434
glycan array binding signal (z-score) [17]: 0.502
glycan array binding signal (z-score) [18]: -0.396
glycan array binding signal (z-score) [19]: -0.427
glycan array binding signal (z-score) [20]: -0.17
glycan array binding signal (z-score) [21]: -0.226
glycan array binding signal (z-score) [22]: -0.433
glycan array binding signal (z-score) [23]: -0.439
glycan array binding signal (z-score) [24]: -0.401
glycan array binding signal (z-score) (Neu5Ac(a2-3)GalNAc): 0.426
glycan array binding signal (z-score) [25]: -0.438
glycan array binding signal (z-score) [26]: -0.424
glycan array binding signal (z-score) [27]: -0.084
glycan array binding signal (z-score) [28]: -0.407
glycan array binding signal (z-score) [29]: -0.373
glycan array binding signal (z-score) [30]: -0.408
glycan array binding signal (z-score) [31]: -0.415
glycan array binding signal (z-score) [32]: 0.227
glycan array binding signal (z-score) [33]: -0.448
glycan array binding signal (z-score) (Neu5Ac(a2-6)GalNAc): -0.388
glycan array binding signal (z-score) [34]: -0.229
glycan array binding signal (z-score) (Neu5Ac(a2-8)Neu5Ac): -0.416
glycan array binding signal (z-score) [35]: -0.439
glycan array binding signal (z-score) [36]: -0.418
glycan array binding signal (z-score) [37]: -0.434
glycan array binding signal (z-score) [38]: -0.359
glycan array binding signal (z-score) [39]: -0.392
